Source: US20260200947A1, “FUSED CYCLIC COMPOUNDS AND USE THEREOF” (Jacobio Pharmaceuticals Co., Ltd., priority 2022, published 2026)

Key:
[1] = test system: Capan-2 cells (K-Ras G12V)
[2] = test system: AGS cells (K-Ras G12D)
[3] = molecular target: GppNp-KRAS G12V (Homo sapiens, UniProt P01116, G12V); experiment: biochemical
[4] = molecular target: GppNp-KRAS G12D (Homo sapiens, UniProt P01116, G12D); experiment: biochemical

SMILES | IC50 [1] | IC50 [2] | IC50 [3] | IC50 [4]
[2H]C#Cc1c(F)ccc2cc(N)cc(-c3nc4c5c(nc(OCC67CCCN6CC(F)C7)nc5c3F)N3CCCOCC3N4C)c12 (stereo not shown) [Compound 109] | 0.000885 µM | 0.00202 µM |  | 
C#Cc1c(F)ccc2cc(N)cc(-c3nc4c5c(nc(OC[C@@]67CCCN6C[C@H](F)C7)nc5c3F)N3CCCCC(C)C3N4C)c12 (stereo partly shown) [Compound 121] | 0.00838 µM | 0.00925 µM |  | 
C#Cc1c(F)ccc2cc(N)cc(-c3nc4c5c(nc(OCC6(CN7CC8CC8C7)CC6)nc5c3F)N3CCCOCC3N4C)c12 (stereo not shown) [Compound 117] | 0.0187 µM | 0.0651 µM |  | 
C#Cc1c(F)ccc2cc(N)cc(-c3nc4c5c(nc(OC[C@@]67CCCN6C[C@H](F)C7)nc5c3F)N3CCC(F)CC(F)C3N4C)c12 (stereo partly shown) [Compound 115] | 0.00516 µM | 0.0034 µM |  | 
C#Cc1c(F)ccc2cc(N)cc(-c3nc4c5c(nc(OC[C@@]67CCCN6C[C@H](F)C7)nc5c3F)N3CC[C@H](F)CC[C@H]3N4C)c12 [Compound 83] |  |  | 0.104 µM | 0.0231 µM
C#Cc1c(F)ccc2cc(N)cc(-c3nc4c5c(nc(OC[C@@]67CCCN6C[C@H](F)C7)nc5c3F)N3CC[C@@H](O)CC[C@H]3N4C)c12 [Compound 84] |  |  | 0.146 µM | 0.115 µM
C#Cc1c(F)ccc2cc(N)cc(-c3nc4c5c(nc(OC[C@@]67CCCN6C[C@H](F)C7)nc5c3F)N3CC(CF)COCC3N4C)c12 (stereo partly shown) [Compound 124] |  | 0.0197 µM |  | 
